# From the supplement of paper PMC10369915
# This is one part of the list. Cut-off read from the data, not from the text of the source: active = 3.2 or more and inactive = the rest. Most of these values are background signal.
# B1: ADGRG7_Y760 (peptide)
# chain: LRVKMYNFLRS
# B2: ADGRE1_Y534_I539V (peptide)
# chain: SDPIIYTLENV
# B3: AKT3_Y174_YF (peptide)
# chain: ASGKFYAMKIL
# B4: AIFM1_Y347_L344F (peptide)
# chain: KIFPEYLSNWT
# B5: AIPL1_Y267_YF (peptide)
# chain: GIVKAYFVRAR
# B6: AKAP9_Y2482 (peptide)
# chain: LENQTYFKSFE
# B7: ALB_Y174_Y174F (peptide)
# chain: RHPYFFAPELL
# B8: AGXT_Y297 (peptide)
# chain: REAAAYLHGRL
# B9: AICDA_Y146 (peptide)
# chain: FKDYFYCWNTF
# B10: AIPL1_Y268 (peptide)
# chain: IVKAYYVRARA
# B11: AIPL1_Y267 (peptide)
# chain: GIVKAYYVRAR
# B12: AGXT_Y194 (peptide)
# chain: GGTPLYMDRQG
# B13: AHSG_Y314 (peptide)
# chain: LHRAHYDLRHT
# B14: ADGRL4_Y302_V300L (peptide)
# chain: VAFLYYKSIGP
# B15: AGXT_Y231_R233C (peptide)
# chain: AKKKMYSCKTK
# B16: AKT1_Y437 (peptide)
# chain: ETDTRYFDEEF
# B17: ALAS2_Y199 (peptide)
# chain: WCSNDYLGMSR
# B18: AKR1B10_Y310_N313D (peptide)
# chain: SHLEDYPFDAE
# B19: ADM_Y52_S50R (peptide)
# chain: RMSRSYPTGLA
# B20: ADPRS_Y75_T79P (peptide)
# chain: TEALYYTDDPA
# B21: AFG3L2_Y614 (peptide)
# chain: LPKEQYLYTKE
# B22: AIPL1_Y268_R270H (peptide)
# chain: IVKAYYVHARA
# B23: AKR1C2_Y81_I79V (peptide)
# chain: REDVFYTSKLW
# B24: ADPRS_Y75 (peptide)
# chain: TEALYYTDDTA
# B25: ADGRL4_Y302_V300L_YF (peptide)
# chain: VAFLFYKSIGP
# B26: AHNAK_Y964 (peptide)
# chain: KVKGEYDMTVP
# B27: AKR1B10_Y316_N313D (peptide)
# chain: PFDAEYGGGGG
# B28: ALAS2_Y199_R204Q (peptide)
# chain: WCSNDYLGMSQ
# B29: ADGRD1_Y85_Y89D_YF (peptide)
# chain: GVTLLYFGRDN
# B30: AICDA_Y146_F151S_YF (peptide)
# chain: FKDFFYCWNTS
# B31: AKAP4_Y554_T557I (peptide)
# chain: LKLIQYHLIQQ
# B32: ADGRL4_Y301_V300L_YF (peptide)
# chain: AVAFLYFKSIG
# B33: AK7_Y390_YF (peptide)
# chain: KELANYFKLHH
# B34: AKR1C2_Y305_N300T (peptide)
# chain: TRNVRYLTLDI
# B35: AGXT_Y231 (peptide)
# chain: AKKKMYSRKTK
# B36: AHCY_Y143_Y143C (peptide)
# chain: LIHTKCPQLLP
# B37: AKT3_Y173_G171R (peptide)
# chain: KASRKYYAMKI
# Target: SHP2 C-SH2 domain E139D
# Experiment: enrichment score (SH2-bound / input frequency) (ratio); bacterial display of known human phosphotyrosine sites (pTyr-Var adds point mutants) read by sequencing; higher = stronger binding; tyrosines were phosphorylated by kinases first
# Conditions: peptide library: pTyr-Var
# 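Note: displayed peptides selected on beads carrying the immobilized SH2 domain, with library peptides lacking any tyrosine serving as negative controls.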
row,Binder,enrichment score
1,B1,inactive: 1.52
2,B2,inactive: 0.697
3,B3,inactive: 1.06
4,B4,inactive: 1.27
5,B5,inactive: 0.43
6,B6,inactive: 1.07
7,B7,inactive: 1.49
8,B8,inactive: 0.931
9,B9,inactive: 1.14
10,B10,inactive: 0.391
11,B11,inactive: 0.294
12,B12,inactive: 0.765
13,B13,active: 3.77
14,B14,inactive: 0.571
15,B15,inactive: 2.32
16,B16,inactive: 0.571
17,B17,inactive: 0.984
18,B18,inactive: 0.542
19,B19,inactive: 0.444

row,Binder,enrichment score
1,B20,inactive: 1.01
2,B21,inactive: 1.22
3,B22,inactive: 2.24
4,B23,inactive: 1.15
5,B24,inactive: 0.618
6,B25,inactive: 1.02
7,B26,inactive: 0.957
8,B27,inactive: 0.554
9,B28,inactive: 0.973
10,B29,active: 3.34
11,B30,inactive: 1.05
12,B31,active: 3.83
13,B32,inactive: 1.24
14,B33,inactive: 1.42
15,B34,inactive: 1.24
16,B35,inactive: 0.344
17,B36,inactive: 1.26
18,B37,inactive: 0.619

# Target: SHP2 C-SH2 domain wild-type
# Experiment: as above
# Conditions: peptide library: pTyr-Var
row,Binder,enrichment score
1,B1,inactive: 0.894
2,B2,inactive: 0.681
3,B3,inactive: 1.1
4,B4,inactive: 1.14
5,B5,inactive: 0.368
6,B6,inactive: 1.07
7,B7,inactive: 1.47
8,B8,inactive: 1.01
9,B9,inactive: 1.52
10,B10,inactive: 0.344
11,B11,inactive: 0.279
12,B12,inactive: 0.701
13,B13,inactive: 3.17
14,B14,inactive: 0.655
15,B15,inactive: 2.49
16,B16,inactive: 0.623
17,B17,inactive: 1.06
18,B18,inactive: 0.647
19,B19,inactive: 0.586

row,Binder,enrichment score
1,B20,inactive: 0.552
2,B21,inactive: 0.915
3,B22,inactive: 2.2
4,B23,inactive: 0.759
5,B24,inactive: 1.02
6,B25,inactive: 1.55
7,B26,inactive: 0.442
8,B27,inactive: 0.523
9,B28,inactive: 1.08
10,B29,inactive: 3.13
11,B30,inactive: 1.44
12,B31,active: 4.35
13,B32,inactive: 1.38
14,B33,inactive: 1.16
15,B34,inactive: 2.6
16,B35,inactive: 0.282
17,B36,inactive: 1.29
18,B37,inactive: 0.715

# Target: SHP2 N-SH2 domain L43F
# Experiment: as above
# Conditions: peptide library: pTyr-Var
row,Binder,enrichment score
1,B1,inactive: 1.28
2,B2,inactive: 0.848
3,B3,inactive: 0.958
4,B4,inactive: 1.13
5,B5,inactive: 0.293
6,B6,inactive: 0.754
7,B7,inactive: 1.64
8,B8,inactive: 0.835
9,B9,inactive: 0.999
10,B10,inactive: 0.451
11,B11,inactive: 0.309
12,B12,inactive: 0.783
13,B13,active: 3.72
14,B14,inactive: 0.585
15,B15,inactive: 2.36
16,B16,inactive: 0.493
17,B17,inactive: 1.02
18,B18,inactive: 0.492
19,B19,inactive: 1.19

row,Binder,enrichment score
1,B20,inactive: 0.838
2,B21,inactive: 0.969
3,B22,inactive: 1.78
4,B23,inactive: 0.785
5,B24,inactive: 0.883
6,B25,inactive: 1.25
7,B26,inactive: 0.739
8,B27,inactive: 0.62
9,B28,inactive: 0.924
10,B29,inactive: 3.12
11,B30,inactive: 1.31
12,B31,active: 5.8
13,B32,inactive: 1.44
14,B33,inactive: 0.889
15,B34,active: 9.03
16,B35,inactive: 0.293
17,B36,inactive: 1.23
18,B37,inactive: 0.511

# Target: SHP2 N-SH2 domain T42A
# Experiment: as above
# Conditions: peptide library: pTyr-Var
row,Binder,enrichment score
1,B1,inactive: 1.25
2,B2,inactive: 0.713
3,B3,inactive: 1.03
4,B4,inactive: 1.46
5,B5,inactive: 0.344
6,B6,inactive: 0.607
7,B7,inactive: 1.62
8,B8,inactive: 0.849
9,B9,inactive: 0.912
10,B10,inactive: 0.361
11,B11,inactive: 0.276
12,B12,inactive: 0.587
13,B13,active: 3.87
14,B14,inactive: 0.574
15,B15,inactive: 1.65
16,B16,inactive: 0.462
17,B17,inactive: 0.977
18,B18,inactive: 0.539
19,B19,inactive: 0.533

row,Binder,enrichment score
1,B20,inactive: 0.907
2,B21,inactive: 0.79
3,B22,inactive: 1.77
4,B23,inactive: 1.57
5,B24,inactive: 0.879
6,B25,inactive: 1.36
7,B26,inactive: 0.678
8,B27,inactive: 0.692
9,B28,inactive: 1.02
10,B29,inactive: 2.58
11,B30,inactive: 0.984
12,B31,active: 4.05
13,B32,inactive: 1.25
14,B33,inactive: 1.13
15,B34,active: 21.5
16,B35,inactive: 0.343
17,B36,inactive: 1.1
18,B37,inactive: 0.654

# Target: SHP2 N-SH2 domain T52S
# Experiment: as above
# Conditions: peptide library: pTyr-Var
row,Binder,enrichment score
1,B1,inactive: 1.11
2,B2,inactive: 0.792
3,B3,inactive: 1.01
4,B4,inactive: 1.31
5,B5,inactive: 0.435
6,B6,inactive: 0.992
7,B7,inactive: 1.5
8,B8,inactive: 0.74
9,B9,inactive: 1.04
10,B10,inactive: 0.387
11,B11,inactive: 0.364
12,B12,inactive: 0.788
13,B13,active: 3.38
14,B14,inactive: 0.544
15,B15,inactive: 2.2
16,B16,inactive: 0.522
17,B17,inactive: 0.885
18,B18,inactive: 0.616
19,B19,inactive: 0.544

row,Binder,enrichment score
1,B20,inactive: 1.5
2,B21,inactive: 0.81
3,B22,inactive: 2.09
4,B23,inactive: 0.938
5,B24,inactive: 0.459
6,B25,inactive: 1.7
7,B26,inactive: 0.783
8,B27,inactive: 0.588
9,B28,inactive: 0.813
10,B29,inactive: 2.89
11,B30,inactive: 1.01
12,B31,active: 5.99
13,B32,inactive: 1.02
14,B33,inactive: 1.16
15,B34,active: 11.5
16,B35,inactive: 0.193
17,B36,inactive: 1.17
18,B37,inactive: 0.528

# Target: SHP2 N-SH2 domain wild-type
# Experiment: as above
# Conditions: peptide library: pTyr-Var
row,Binder,enrichment score
1,B1,inactive: 1.09
2,B2,inactive: 0.92
3,B3,inactive: 1.22
4,B4,inactive: 1.18
5,B5,inactive: 0.27
6,B6,inactive: 1.03
7,B7,inactive: 1.61
8,B8,inactive: 0.875
9,B9,inactive: 1.29
10,B10,inactive: 0.368
11,B11,inactive: 0.293
12,B12,inactive: 0.816
13,B13,inactive: 2.83
14,B14,inactive: 1.17
15,B15,inactive: 1.81
16,B16,inactive: 0.606
17,B17,inactive: 0.842
18,B18,inactive: 0.59
19,B19,inactive: 0.53

row,Binder,enrichment score
1,B20,inactive: 0.718
2,B21,inactive: 1.55
3,B22,inactive: 1.92
4,B23,inactive: 0.928
5,B24,inactive: 0.963
6,B25,inactive: 2.3
7,B26,inactive: 0.832
8,B27,inactive: 0.909
9,B28,inactive: 0.886
10,B29,active: 3.29
11,B30,inactive: 1.59
12,B31,active: 3.58
13,B32,inactive: 1.76
14,B33,inactive: 1.15
15,B34,active: 3.56
16,B35,inactive: 0.276
17,B36,inactive: 1.14
18,B37,inactive: 0.795
